According to the supplement of paper PMC3334620:
The full ranking holds about 33,000 sequences; the median of “E-score (-0.5 to 0.5)” is about -0.035, and the highest 2% start at about 0.34. The list shows a part of the results.

Target: T1, Mot3 (UniProt P54785)
T1 sequence: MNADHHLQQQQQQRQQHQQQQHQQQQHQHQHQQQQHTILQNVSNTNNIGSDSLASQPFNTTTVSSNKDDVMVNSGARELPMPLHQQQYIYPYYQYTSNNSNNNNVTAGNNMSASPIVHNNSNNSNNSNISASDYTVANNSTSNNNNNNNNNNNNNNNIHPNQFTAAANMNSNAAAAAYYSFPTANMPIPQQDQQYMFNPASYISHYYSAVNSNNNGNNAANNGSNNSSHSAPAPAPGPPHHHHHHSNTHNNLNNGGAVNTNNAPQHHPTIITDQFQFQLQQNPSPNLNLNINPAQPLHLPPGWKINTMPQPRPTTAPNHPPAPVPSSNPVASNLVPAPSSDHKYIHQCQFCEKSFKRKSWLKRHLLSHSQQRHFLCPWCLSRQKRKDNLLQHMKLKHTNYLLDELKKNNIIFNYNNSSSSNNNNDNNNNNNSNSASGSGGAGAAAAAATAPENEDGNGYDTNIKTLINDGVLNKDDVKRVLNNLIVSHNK
Experiment: PBM E-score (8-mer binding enrichment) (E-score (-0.5 to 0.5)); higher = stronger / more preferred TF binding; most listed sequences are background and not binding sites
Conditions: protein concentration: 200 nM; construct: GST-full length
Procedure, shortened: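 E-scores (a modified Wilcoxon-Mann-Whitney statistic) were assigned by the Universal PBM Analysis Suite to every ungapped eight-base word pooled with its reverse complement. The input came from universal all-10-mer Agilent arrays made double-stranded by primer extension and probed with GST-tagged yeast transcription factors at about 100-200 nM. Fluorescent anti-GST detected bound protein, and masliner normalised the scans.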

Sequence | PBM E-score
ATCCCTGC | -0.0769
AATAATTC | 0.106
ACATGCCA | 0.304
CCGCTCTC | -0.26
CTCGTCAG | -0.00992
AGGATTTG | -0.109
TGACGTAA | 0.258
CGCCTTGC | 0.0442
CATGGCGA | -0.075
ATGTTGGG | 0.114
CTACCACA | 0.0407
ATATGACA | 0.1
CCGCCTGC | -0.254
CCACTCAA | -0.0799
GCTAGGCA | 0.446
ACACCTTC | 0.197
AGGACGGC | -0.00286
AGCCGCGG | -0.228
ATTCGACA | 0.206
GGGGGAGA | -0.223
CATAAAAC | 0.0164
CCAGCTGA | -0.0351
AACCCTTA | 0.136
TACAGCAA | 0.0763
AACTGAAC | -0.0966

Sequence | PBM E-score
CGGGTTCC | 0.137
AGGAAGGA | 0.0926
CGTCTGGC | -0.144
CTACGCAG | 0.213
AGGCTCCG | 0.223
CCGGCAGC | -0.343
ATACACAA | 0.324
AAACGGGG | -0.0742
GCTGTAAA | 0.25
ATCGCAGC | -0.296
TCACAACA | 0.313
GTCGCCAA | -0.274
GAATTTAA | -0.02
TAGAAACA | 0.202
GATATTGA | -0.109
TCGAGTCA | -0.115
CACCAACA | 0.0532
AAGAACTA | 0.085
CATCTGTA | -0.0963
AGTGGCTC | -0.172
AGGTACAG | 0.332
CGCGAGTC | -0.148
CGAGTGTA | 0.0972
ACACGGAT | 0.302
CCTATAGG | 0.113

Sequence | PBM E-score
CACCGCCC | -0.0948
CTTGCTGA | -0.121
ACAATACT | 0.0808
AAGCTTCA | -0.264
CTAGGACA | -0.00867
ACGACATA | 0.122
AGCAGCGA | -0.113
AACGTTGC | 0.157
CTTAATCA | 0.00665
GTAAGGGA | 0.145
AAACGGGT | 0.0486
GCAAACCC | -0.013
CGCGGCAC | -0.154
CACGAAGC | 0.0616
ACTTGCCT | 0.479
GTTTCCCA | -0.246
GATGCGAC | -0.229
AAAATTCC | 0.0292
ATGACAAC | 0.117
AAGCGACT | -0.168
GCTCAACA | 0.158
ACAGTCGT | -0.12
GAACAGCA | -0.00296
GTGGCGAA | 0.0447
GAAACGTA | 0.111

Sequence | PBM E-score
CCGAGGAC | -0.253
AAGACTCT | -0.0129
GGTTGTCA | -0.00186
AGGACCTC | -0.128
TGCATAAA | 0.172
CCGACTTC | -0.155
GCATTTGA | 0.0576
AGTTCCGA | -0.142
ACTTCGTC | -0.192
ACGGGGTA | 0.0158
ACTTAAGA | -0.0379
CCGTTTGA | -0.197
CCGTCTGA | -0.112
ACAATAGC | 0.0585
GTGCGGCA | -0.217
GGAGAGCC | -0.151
AACGTGTC | 0.273
GAGGGAAC | -0.0395
GAGGTAAA | 0.0852
ACGGTATA | -0.0946
CCGTAACG | -0.0486
TCAGGAGA | -0.0813
GGAACAAC | 0.229
ATCCTGCC | -0.0886
ACGTTGGG | -0.0423

Sequence | PBM E-score
GCTTACAC | 0.178
CCGCTCAC | -0.322
CCATGAAG | -0.233
ATAGACGA | -0.0249
CTACAACA | 0.172
ACTATTGC | 0.00783
AAGTGAAA | -0.0272
GCGCACTA | -0.199
GCGCGCCC | -0.276
CTGGCGGA | -0.124
CGATGACA | 0.0888
GAAACATA | 0.211
AGGATGTC | 0.107
ATCAGCTA | -0.0497
AGTTCAGA | -0.141
AGGACCTG | -0.201
CGCTCACA | -0.0625
CTAGCCCA | -0.216
ATCCGTAA | -0.11
CAGGAATG | -0.0291
CGTGGAGC | -0.18
TTAAATAA | 0.111
TCGCGCAA | -0.0049
ACAAGGCG | 0.109
TGAGTAAA | 0.229

Sequence | PBM E-score
GGATAGGA | -0.0985
ACTTGGAT | 0.0576
GAGCAGAA | -0.182
CGCGCCTA | 0.303
AGGCGGCA | 0.0359
CCTAAGAC | -0.106
CATGGTCG | -0.0196
GGCAACCC | 0.14
AGATGTCG | -0.0342
ACCCGCGA | 0.0237
AACTCGGG | -0.162
GAAATGGA | 0.00318
ACTATGCT | -0.0241
AGTTGTCG | -0.0388
AACACATT | 0.194
CAACACTA | 0.105
TCCGACCA | -0.139
CTGCAGTC | -0.106
TATCAGAA | 0.0312
ATATGAAA | 0.141
ATAATTGG | -0.204
AATATAGT | 0.085
GTATTATA | 0.187
ATGAGTTC | 0.0311
ATAACCGG | -0.205

Sequence | PBM E-score
AGACTATG | -0.0459
CTCAGAGC | -0.168
GAAAACGA | -0.0665
TGGTAACA | 0.141
AAAAAAAT | 0.171
GAGAAAAC | 0.00577
AAATTACC | 0.209
AGAGTAGC | -0.162
CTTGGTAC | 0.175
AATATGCC | -0.0377
CTTTTCAC | 0.173
CTGATTAA | 0.112
GGGACTAC | -0.199
CAATGCAC | 0.085
CAGTAATA | 0.191
CGAGCGGA | -0.341
GAGATTAA | -0.0414
ATTTGTTA | 0.109
ACGGGCAG | 0.142
CCACAGTA | -0.0585
CATTAATG | 0.0688
AGAGGCTC | -0.395
